Test results from article PMC6919601, “Identification of Plasmodium dipeptidyl aminopeptidase allosteric inhibitors by high throughput screening” (PLoS ONE, 2019).
The campaign covered roughly 110,000 compounds. About 230 (0.21%) showed an effect of 50% or more. The list shows a part of the results. Where a SMILES comes first, the peptide text is derived from it.

These molecules were tested against DPAP1 (Plasmodium falciparum, UniProt Q8IIJ9) (assay: primary screen, percent inhibition; read by cleavage of a fluorogenic dipeptide substrate; higher = more effect of the substance).
Design: species or system P. falciparum D10 trophozoite lysates; single well
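Further: 30 min substrate incubation versus DMSO and 10 µM JCP410 controls.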

Chain of DPAP1 (Q8IIJ9 whole entry, looked up): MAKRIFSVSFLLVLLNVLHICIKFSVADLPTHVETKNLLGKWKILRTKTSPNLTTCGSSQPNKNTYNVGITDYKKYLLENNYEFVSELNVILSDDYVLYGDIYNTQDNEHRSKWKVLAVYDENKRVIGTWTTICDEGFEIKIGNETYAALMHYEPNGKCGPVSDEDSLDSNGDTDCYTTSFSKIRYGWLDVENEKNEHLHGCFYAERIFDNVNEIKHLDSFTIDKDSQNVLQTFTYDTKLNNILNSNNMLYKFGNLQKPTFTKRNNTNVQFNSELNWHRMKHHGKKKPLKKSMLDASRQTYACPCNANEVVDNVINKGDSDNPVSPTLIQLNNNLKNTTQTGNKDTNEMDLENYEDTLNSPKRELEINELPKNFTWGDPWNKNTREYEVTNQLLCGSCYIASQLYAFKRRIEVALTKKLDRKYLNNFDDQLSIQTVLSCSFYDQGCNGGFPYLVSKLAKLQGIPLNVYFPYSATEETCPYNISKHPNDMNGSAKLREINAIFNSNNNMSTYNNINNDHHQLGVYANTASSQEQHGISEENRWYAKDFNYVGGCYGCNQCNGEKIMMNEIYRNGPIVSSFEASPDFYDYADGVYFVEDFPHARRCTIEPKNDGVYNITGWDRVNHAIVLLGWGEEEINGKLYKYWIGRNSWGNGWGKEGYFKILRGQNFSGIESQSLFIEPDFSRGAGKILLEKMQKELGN

Structure (SMILES) | % Inhibition @ 10 uM [%]
CCc1nc2ccccc2n1CC(O)COc1ccc(Cl)cc1 (stereo not shown) | -2.74
O=C(NCCO)C1CC(=O)N(c2ccccc2)C1 (stereo not shown) | -0.996
Oc1c(/C=N/CCCn2ccnc2)c(-c2ccccc2)nn1-c1nc2ccccc2s1 | 3.65
Cn1cc(Br)c(C(=O)Nc2sc3c(c2C(N)=O)CCCCC3)n1 | 51.9
O=C(O)CNC(=O)C1CCCN1C(=O)CNC(=O)OCc1ccccc1 (stereo not shown) (HELM PEPTIDE1{[O=C(OCc1ccccc1)[*:2]].G.[O=C(C1CCCN1[*:1])[*:2]].G}$$$$V2.0) | -5.51
c1cnc2c(SCC3CCOCO3)cccc2c1 (stereo not shown) | 2.68
O=C1NC(=O)/C(=C\c2ccc3c(c2)OCO3)S1 | 3.66
CCOC(=O)N1CCC(Nc2nn3nnnc3c3ccccc23)CC1 | 0.802
O=C1NC2(CCCC2)C(=O)N1CCS(=O)(=O)Oc1ccccc1 | -5.28
COc1ccc(Oc2ccc(Oc3ccc(OC)cc3)cc2)cc1 | 4.41
Clc1ccc(CN2CCOCC2)c(Cl)c1 | -5.65
C=CCNC(=O)C(=O)Nc1cccc(Cl)c1 | -5.9
COc1ccc(C(=O)Nc2cccc(C)c2C(=O)O)cc1 | -1.41
COc1ccc2c(c1)C1=NN(C(C)=O)C(c3ccc(N(C)C)cc3)C1CC2 (stereo not shown) | 4.78
O=C(NCCc1ccccc1)c1ccccc1CN1C(=O)c2ccccc2C1=O | 20.3
NC(=O)c1c(NC(=O)COc2ccccc2Br)sc2c1CCCCCC2 | -3.83
COc1cccc(N/C(=N\C(C)=O)Nc2nc(C)cc(C)n2)c1 | -0.553
O=C(O)CC(NS(=O)(=O)Cc1ccccc1)c1ccc(OC2CCCC2)cc1 (stereo not shown) | 5.13
C/C(=N\[C@@H](CS(=O)(=O)Cc1ccccc1)C(=O)NCC#N)NS(=O)(=O)c1ccccc1 | -3.14
C=CCc1cccc2cc(C(=O)Nc3ccccc3)c(=O)oc12 | -4.08
O=S(=O)(NC1CCCCC1)c1ccc(S(=O)(=O)N(Cc2ccccc2F)C2CC2)cc1 | 6.7

Structure (SMILES) | % Inhibition @ 10 uM [%]
CCOC(=O)c1ccc(NC(=O)/C=C/c2ccc3c(c2)OCO3)cc1 | -1.84
COc1ccc(CNCc2c(C(=O)O)n(Cc3ccccc3)c3cc(C)ccc23)cc1OC | 5.68
O=C(c1cc2ccc3cccnc3c2[nH]1)N1CCC(c2ccccc2)C1 (stereo not shown) | -0.528
CC(NC(=O)CN(c1ccccc1F)S(=O)(=O)c1ccccc1)c1ccccc1 (stereo not shown) | 0.189
Oc1ccc(Nc2nc(-c3ccc(Cl)cc3)cs2)cc1 | -2.43
CCc1cc2c(cc3c(=O)n(CCCC(=O)NCc4cccc(OC)c4OC)ncn32)s1 | -1.7
Cc1cccc(C(=O)Nc2ccc(S(=O)(=O)Nc3nc(C)cc(C)n3)cc2)c1 | -1.38
COc1ccc(CCNC(=O)CSc2nc(O)c3cnn(-c4ccc(C)cc4)c3n2)cc1OC | 0.208
O=C(Cc1coc2ccc3ccccc3c12)NCc1cccnc1 | -1.07
CCN(CC)CCCNC(=O)c1nc(CS(=O)(=O)c2ccccc2)no1 | 15.6
CC(C)CCn1c(CN2CCN(C(=O)c3ccco3)CC2)nc2c1c(=O)n(C)c(=O)n2C | 2
COc1ccc(Cl)cc1C=C1C(=O)N(C)C(=O)N(C)C1=O | 5.94
CCN(CC)CCCC(C)NC(C)=C1C(=O)N(C)C(=O)N(C)C1=O (stereo not shown) | 5.98
CC1=C(C(=O)OCCc2ccccc2)C(c2ccccc2)NC(=O)N1 (stereo not shown) | 0.736
CN1C(=O)/C(=C(O)/C=C/c2ccc(Cl)cc2)C2c3ccccc3OC13CCCC23 (stereo not shown) | -7.21
COc1cc(NC(=O)c2cc(OC)c(OC)c(OC)c2)c2ncccc2c1 | -1.89
CC(C)n1c(SCc2ccc(Cl)cc2)nc2c1c(=O)[nH]c(=O)n2C | -6.7
CC1=C(C(=O)N2CCOCC2)C(c2cc(Br)ccc2F)C2=C(O)CCCC2=N1 (stereo not shown) | 1.86
COc1ccc2cc3c(N)nn(C(=O)CCS(=O)(=O)c4ccccc4)c3nc2c1 | 2.5
CCOc1ccc(CCNCc2c(C(=O)O)n(Cc3ccccc3C)c3cc(OC)ccc23)cc1 | -7.21
COc1ccc(-c2cc(/N=C(/NC3CCCCC3)SC)[nH]n2)cc1OC | -4.07

Structure (SMILES) | % Inhibition @ 10 uM [%]
CC(C)CCCN/C=C1/C(=O)NC(=O)N(c2ccc(Br)cc2)C1=O | 4.6
COc1ccc(C2C3C(=O)N(c4ccc(C#N)cc4)C(=O)C3ON2c2ccccc2)cc1 (stereo not shown) | -6.51
Nc1cc(O)nc(SCc2nc3ccccc3n2Cc2ccccc2)n1 | -2.6
CCOC(=O)c1c(NC(=O)CSc2nc(O)c3cnn(-c4ccccc4)c3n2)sc2c1CCC2 | -5.22
CC1=NN2C(=N)/C(=C\c3cccn3-c3ccc(Cl)c(Cl)c3)C(=O)N=C2S1 | -1.54
COc1cc(S(=O)(=O)N2CCCCC2)ccc1N/C=C1/C(=O)NC(=O)N(c2ccc(C)cc2)C1=O | 3.05
C=CCSc1nnc(NC(=O)Cc2coc3ccc(OC)cc23)s1 | 44
O=S(=O)(c1ccccc1)N1CCC[C@H]1C(O)(c1ccccc1)c1ccccc1 | 0.324
Cc1onc(-c2ccccc2Cl)c1C(=O)Nc1sc2c(c1C(N)=O)CCC(C)C2 (stereo not shown) | -1.36
COCCNC(=O)C1c2ccccc2C(=O)N(CCOC)C1c1ccc(F)cc1 (stereo not shown) | 5.11
COc1ccc(CN2CCN(Cc3cccc(OC)c3OC)CC2)cc1 | 9.67
Cc1ccc2[nH]c(SCC(=O)Nc3ccc(Cl)cc3)nc2c1 | 5.24
O=C(CN1CCCC1=O)N1CCOCC1 | 1.69
CCN(CC)CCNc1ccc([N+](=O)[O-])cn1 | -1.15
COc1ccccc1NC(=O)C1=C(C)Nc2sc(C#N)c(N)c2C1c1ccco1 (stereo not shown) | -1.98
Fc1cccc(-c2nnc(-c3ccc(C(F)(F)F)cc3)o2)c1 | -2.54
CCCC(=O)C1CCN(C(=O)c2ccc(C(C)(C)C)cc2)CC1 | 5.25
Cc1ccc(C)c(CSc2ncccc2C(=O)O)c1 | 2.79
O=C(CCC(=O)N1Cc2ccccc2Oc2ncccc21)N1CCOCC1 | 3.87
